One assay deals with ACHN cells. Description: In vitro PBMC-killing assay (Caspase-3/7 Glo), renal cancer cells. The class given is cell-based. To be noted: antibody pretreatment, then 72 h co-culture with human PBMC; FIG. 24A. The protocol: ACHN cells were seeded into a 96-well plate at 5×10^4 cells per well and allowed to attach overnight at 37° C. CBT-15 mAB or isotype control mAB were added to the ACHN wells at concentrations of 100 μg/mL in quadruplicate and incubated at 37° C. for 72 h. After mAB treatment, the media was replaced and 1.25×10^5 primary human PBMC cells (ATCC) were co-incubated with the ACHN cells for 72 h. Finally, luminescent CaspaseGlo® 3/7 activity (Promega) assay was performed according to the manufacturer's protocol as a surrogate measure of apoptosis.
To further assess the functional relevance of these findings we seeded ACHN renal and AsPC-1 pancreatic cancer cells into 96 wells and subjected them to antibody-dependent cell-mediated cytotoxicity assay. Briefly, 10^4 cancer cells were seeded into each well after 48 hours pretreatment with either isotype control or CBT-15 monoclonal antibody. Human peripheral blood […] were then seeded into each well at 10^5 cells per well and co-cultured for 72 h. After 72 h Caspase-3/7 Glo assay was performed to assess apoptosis.

In assay [1] the test system is extracellular DCLK1 on AsPC-1 human pancreatic cancer cells. Description: FACS of live AsPC-1 cells under non-permeabilizing conditions. The class given is cell-based. To be noted: 10 μg/mL, on ice, FIG. 3. The method, then:
To assess cell cycle status, cells were trypsinized, centrifuged at 4° C., washed with cold PBS, and then fixed in 70% ethanol on ice for >2 h. Following fixation the cells were washed with PBS again and incubated with propidium iodide (50 μg/ml) and treated with RNAse A. In another experiment to analyze the expression of DCLK1, cells were trypsinized, centrifuged, washed, and then 5 μL activated ALDEFLUOR and 5 μL anti-DCLK1 antibody conjugated with respective fluorochromes were added and allowed to incubate for 60 min at 37° C. Following incubation the cells were washed with ALDEFLUOR buffer. Data was collected on FACS Calibur and analyzed in ModFit LT or Flowing Software. To analyze the expression level of ALDH, cells were resuspended in ALDEFLUOR assay buffer containing ALDH substrate, BAA (Bodipy-aminoacetaldehyde) (50 mg dry reagent), with or without 5 ml of the specific ALDH inhibitor diethylaminobenzaldehyde (DEAB 1.5 mM in 95% ethanol stock solution), as a negative control. After 60 mins incubation at 37° C., data was collected by FACS Calibur. For DCLK1 extracellular-domain based cell sorting, cells were trypsinized and washed as described above. After washing cells were incubated with anti-DCLK1 antibody conjugated with fluorochrome for 60 min on ice and sorted using BD Biosciences FACSAria III. Sorted cells were kept on ice and seeded directly into ECM. […]

In the next assay the test system is PD-L1. Description: Western blot of PD-L1 protein expression in RCC cells. The class given is cell-based, human. To be noted: ACHN and Caki-2 RCC cells; 72 h, 100 μg/mL antibody; FIG. 23. The protocol: (§1) Lysates from ACHN or CAKI2 cells were subjected to Western blot analysis. The concentration of total proteins was determined by BCA protein assay (Pierce, Rockford, Ill.). 40 μg of protein lysates were size separated on a 4%-20% SDS polyacrylamide gel and transferred onto a PVDF membrane. The membrane was blocked in 1% caseine for 30 minutes and probed with primary antibody α-DCLK1 (ABCAM, ab31704), HIF-1α (ABCAM, ab2185), Vimentin (Santa Cruz, S.C.-7557), ALDH1A1 (ABCAM, ab52492), β-Actin (ABCAM, ab8226) overnight at 4° C. The membrane was then washed 3 times with TBST and probed with species-appropriate secondary antibody (cw800-conjugated) for 30 mins at room temperature protected from light. Finally, proteins were detected using a LICOR Odyssey Infrared Imager and density quantification was performed in Image Studio Lite (LICOR) where appropriate.
(§2) Given our tissue microarray data, the hypothesized link between immune checkpoint and cancer stem cells, and emerging data linking immune checkpoint to the EMT-phenotype supported by DCLK1, we evaluated whether targeted DCLK1 knockdown may sensitize RCC to immunotherapy.
For orientation: Immunoblotting shows a protein as a band on a membrane.

In assay [2] the test system is ACHN human renal tumor xenograft. Put plainly: ACHN xenograft tumor study. The class given is in vivo, mice. The method, then: ACHN cells (5×10^5) were injected subcutaneously into the flanks of male athymic nude mice and allowed to grow until the tumor reached an average volume of 100 mm^3. Once this volume was reached, CBT-15 mAB or isotype control mAB were delivered intraperitoneally at 25 mg/kg biweekly and tumor volume measurements were taken every other day. Horizontal and vertical tumor diameter was measured on each injection date with calipers and tumor volume was calculated using the formula: tumor volume=0.5×length×width^2. At the end of the injection period mice were killed by CO2 asphyxiation and tumors were excised, weighed, and measured. All animal experiments were performed in accordance with standards set forth by the University of Oklahoma Health Sciences Center's Institutional Animal Care and Use Committee.
0.5×10^6 cells were injected into the flanks of 8 week-old athymic nude mice and the resulting tumors were allowed to grow to an average volume 100 mm^3. Upon reaching this volume we began delivering CBT-15 or isotype control mAB at 25 mg/kg biweekly. Tumor volume measurements were taken approximately every other day. At the end of 4 weeks from the start of injections animals were culled and tumors were excised, measured, and weighed.

A further assay deals with CTLA4. Description: Western blot of CTLA4 protein expression in RCC cells. The class given is cell-based, human. To be noted: ACHN and Caki-2 RCC cells; 72 h, 100 μg/mL antibody; data not shown. The protocol: as §1, §2
Assay [3] deals with T1, DCLK1 isoform 4 purified protein (Homo sapiens, UniProt O15075).
T1 sequence (O15075 1-433 isoform O15075-4): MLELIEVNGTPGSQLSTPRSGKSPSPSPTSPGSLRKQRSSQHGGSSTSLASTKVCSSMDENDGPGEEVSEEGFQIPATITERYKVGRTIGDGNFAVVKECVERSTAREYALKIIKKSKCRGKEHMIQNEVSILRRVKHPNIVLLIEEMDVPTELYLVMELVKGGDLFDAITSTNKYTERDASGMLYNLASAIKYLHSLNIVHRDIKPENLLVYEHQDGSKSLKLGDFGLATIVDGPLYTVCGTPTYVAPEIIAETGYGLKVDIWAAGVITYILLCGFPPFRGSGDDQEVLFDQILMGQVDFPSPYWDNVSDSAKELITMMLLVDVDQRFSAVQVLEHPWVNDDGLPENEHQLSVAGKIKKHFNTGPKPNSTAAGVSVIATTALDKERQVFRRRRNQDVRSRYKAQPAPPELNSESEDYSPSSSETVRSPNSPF
Put plainly: Western blotting against purified DCLK1 protein. The class given is binding. The settings on record: FIG. 1. The protocol:
as §1
The resulting monoclonal antibodies produced from this screening process included an Immunoglobulin A species (CBT-15A) and an Immunoglobulin G213 species (CBT-15G). Following purification of the resulting antibodies, their affinity for DCLK1 was confirmed by Western blotting against DCLK1 isoform 4 purified protein (FIG. 1). […] The ability of these antibodies to bind extracellular DCLK1 was further apparent in FACS sorting experiments. […]

Entries after “also recorded” stand apart in the source; their conditions may differ.

B1: CBT-15A: Anti-DCLK1 mouse monoclonal antibody, Immunoglobulin A species, raised against immunogen no. 8 (SEQ ID NO:10); VH SEQ ID NO:14, VL SEQ ID NO:16 (antibody, V domains shown)
VH: DVKLVESGGGLVKLGGSLKLSCAASGFTFSSYYMSWVRQTPEKRLELVAAINSNGGSTYYPDTVKGRFTISRDNAKNTLYLQMSSLKSEDTALYYCARHGGNYWYFDVWGAGTTVTVSS
VL: DIVMSQSPSSLAVSVGEKVTMS[about 80 residues cut from this listing]FGGGTKLEIK
modifications: HC variable AA sequence of CBT-15A; LC variable AA sequence of CBT-15A
In the case of B1, the “PBMC mediated apoptosis, Caspase-3/7 activity relative to isotype control” value with ACHN cells is recorded as “significantly increased; also recorded: can sensitize; also recorded: sensitizes”. Further, the “detection/sorting of extracellular DCLK1+ subpopulation (FACS)” value in assay [1] is “could sort the live extracellular DCLK1+ population”. In addition, the “protein level expression of PD-L1” value with PD-L1 was “significantly decreased; also recorded: partially downregulate”. The “excised tumor volume vs isotype mAB” value in assay [2] (25 mg/kg biweekly, end of treatment, FIG. 26, p<0.001) was “significant decrease”. The “excised tumor weight vs isotype mAB” value in assay [2] (25 mg/kg biweekly, end of treatment, FIG. 27, p<0.01, p<0.001) is “significant decrease”. Also, in assay [2] (athymic nude mice, 25 mg/kg biweekly i.p., 4 weeks, FIG. 25, p<0.03, 25 mg/kg), the “xenograft tumor growth (tumor volume over time) vs isotype mAB” value is given as “strongly inhibited; also recorded: substantially reduced”. Also, the “protein level expression of CTLA4” value with CTLA4 is “no effect”. Also, the “affinity for DCLK1 by Western blot (detection of purified DCLK1 protein)” value in assay [3] is recorded as “confirmed; also recorded: detect”.

Values taken from patent US11655307B2, “Anti-doublecortin-like kinase 1 antibodies and methods of use” (The Board of Regents of the University of Oklahoma, priority 2017, dated 2023).
